Some of the results follow.
test system: PF3D7_0420300 AP2 domain 1 (GST-tagged); assay: gcPBM binding intensity (ln(normalized median fluorescence intensity)); higher = stronger DNA binding
Summary of the method: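 The binding buffer was 1× PBS containing 1% milk, 0.2 mg/ml BSA, 0.5% salmon testes DNA and 0.03% Triton X-100. In it, GST-tagged P. falciparum DNA-binding domains expressed in E. coli were applied for 1 h to an Agilent 4 × 180k array of primer-extended double-stranded 36-bp intergenic genomic probes plus negative controls. Binding intensity, read with Alexa488 anti-GST antibody and a 488 nm scan, is the highest Masliner-normalised natural-log median intensity across replicate spots of either probe orientation.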

Row | Sequence | gcPBM binding intensity (ln)
1 | AATATATATATTAAATGTACATTACATAATTATATA [XGTACX_site3450] | 9.19
2 | TTTTTTTTTTTAGACACATGCATTTTTATAATTTTC [TGCATGCA_site843] | 9.26
3 | TAAATGAAAATATGTACACACTTGAAAACTTTTATG [CACACA_site7388] | 9.44
4 | TGCAACAAAATAAACACACACACACTAGCACAAAAA [CACACA_site5805] | 10
5 | TATATATATTAACTTGTGCGCAAAAAGATATAATTT [GTGCAC_site9672] | 9.1
6 | AATATTTTGATGTGTACACATTAATACAGTTTTACA [CACACA_site5711] | 9.3
7 | AAGAAATAAAAAAAACGTACATATATACATACATAC [XGTACX_site3980] | 9.47
8 | ATATGTATGTATGTCTCAAAATTTCATATTATATTA [CACACA_negctrl_site784] | 9.21
9 | TAGGATATTGAATAATGTACTTTATATATAATATAA [XGTACX_site7828] | 9.08
10 | TGGTAATATCGATTCACACATATCAAAATAAAAAAA [CACACA_site4196] | 9.07
11 | TAGGAGAAAAAAAAAAGTACCCACAACTATTATACT [XGTACX_site8195] | 9.46
12 | AACATATTAATGTACACACACCCACGCACAAACAAA [CACACA_site7320] | 9.8
13 | AGTATTATATATATATGTACATAATATACATATATA [XGTACX_site8514] | 9.19
14 | TTATAAGATTTATGTACACACATATACACAGCTCTA [CACACA_site6481] | 9.44
15 | TCCTAATGCTACCACACACACAAAAACAAATAATAA [CACACA_site2610] | 9.89
16 | TGTCATTCCTCTTATTGTACAAAAATATTATAATAT [XGTACX_site1134] | 9.34
17 | TATTAAAATATTTATACACACATAATTTTGATAAAT [CACACA_site4486] | 9.31
18 | GCTATAAATACAGACGCACACATATACATACAGATA [CACACA_site5778] | 9.49
19 | ATATACATAATATATAATATAAATATATATATGGAA [CACACA_negctrl_site906] | 9.21
20 | TGTTATTAGAAAAATGCACACCAAAAAAAAAAAAAA [CACACA_site8802] | 9.23
21 | ACATATTTATATTCTACACACTTATACTATAATACA [CACACA_site7204] | 9.69
22 | TAATTAATTTACATTTTAATTTTATACAAAATTTAT [CACACA_negctrl_site830] | 8.92

Row | Sequence | gcPBM binding intensity (ln)
23 | GTTATACGCATCAACACACACATACAACGTGGTGTA [CACACA_site1188] | 9.48
24 | ATGGAACTTAAAAATTGTACACATAAAATGGAGAAG [XGTACX_site1823] | 9.34
25 | TCCAATTCTTTATTTTGTACACATTATGTGCATATG [XGTACX_site6290] | 9.24
26 | TTTTCTTGTAGTATAACAAAATATAGTAATATATAT [GTGCAC_negctrl_site609] | 8.97
27 | GTTGTTATATAAAGGAGTACATAATAACACAAATAT [XGTACX_site615] | 9.48
28 | CCATTTGGTATTATATGTACATATAATTTTTTTTTT [XGTACX_site157] | 9.32
29 | ATGAAATATTTATTTGTGCACTTAATTTGTTGGAAA | 9.13
30 | AATCCTTCATATGTAGTGCATATTAACAAAATAAAA [GTGCAC_site9500] | 9.15
31 | AAAAAAAAAAAAAAAACACACATTTATAGTATATAT [CACACA_site1194] | 9.36
32 | GATTTATTTCATATCACACATTTTGGCTATTTTGTG [CACACA_site5793] | 9.59
33 | AAAAACGAAAAAAATACACACCTGAAAAGATATGTA [CACACA_site4644] | 9.63
34 | GTATATATGTATATGTGTACATATATTTTATAATAT [XGTACX_site5703] | 9.2
35 | TGGAAAGTTATTAACACACACATATAAATATTTATA [CACACA_site6173] | 9.64
36 | AGATCATAATATTATACACACATTATATATATGTAA [CACACA_site8419] | 9.42
37 | TATATATAATATTATACACACATATCTGCATAATAT [CACACA_site4202] | 9.51
38 | GGAATAACCAGACACACACACACATATATATATATA [CACACA_site3541] | 10.1
39 | AAAAACCATTCGCACACACACATAATCTATAATATA [CACACA_site6782] | 10
40 | AAGTACCATATAGGCACACATATATATATATATATA [CACACA_site3282] | 9.22
41 | AATACATTGTCAAATTGTACAAATTATAGAACTATT [XGTACX_site2222] | 9.19
42 | TGTTTTTATATATATGCACACAATGTACAAGTATAC [CACACA_site3529] | 9.46
43 | CCATAAAAAGGATACACACACACACCCACATATATA [CACACA_site903] | 10.2
44 | TTATATATAAACATAAAAAGAAATATATTATGTATA [CACACA_negctrl_site667] | 9.08

— the supplement of paper PMC11417369
